Assay results: the supplement of paper PMC12217912
This is one part of the list. The full chains were built here from the parent and the listed change. Values near 0.05 are background.

B1: TEV protease; numbered along this chain (parent)
chain: MGESLFKGPRDYNPISSSICHLTNESDGHTTSLYGIGFGPFIITNKHLFRRNNGTLVVQSLHGVFKVKDTTTLQQHLVDGRDMIIIRMPKDFPPFPQKLKFREPQREERICLVTTNFQTKSMSSMVSDTSCTFPSGDGIFWKHWIQTKDGQCGSPLVSTRDGFIVGIHSASNFTNTNNYFTSVPKNFMELLTNQEAQQWVSGWRLNADSVLWGGHKVFMVKPEEPFQPVKEATQL

Variants of: B1
Experiment: raw area under fraction-flipped curve 0-4 h after induction (AUC4h, not background-subtracted), DNA-recorder readout of cleavage of the substrate (dimensionless); higher = more cleavage of the substrate by the protease variant
Settings: temperature: 34 °C; time window: 0-4 h after rhamnose induction
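Also: Bxb1 expression induced with 0.2% (w/v) L-rhamnose at OD600 near 0.5, cultures sampled hourly, flipped fraction per protease–substrate barcode pair counted by paired-end Illumina sequencing.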

Variant | area with substrate DNLYFQS | area with substrate FNLYFQS | area with substrate GNLYFQS | area with substrate HNLYFQS | area with substrate INLYFQS | area with substrate KNLYFQS | area with substrate MNLYFQS | area with substrate PNLYFQS | area with substrate RNLYFQS | area with substrate SNLYFQS | area with substrate TNLYFQS | area with substrate VNLYFQS | area with substrate WNLYFQS | area with substrate CNLYFQS | area with substrate NNLYFQS | area with substrate YNLYFQS | area with substrate LNLYFQS | area with substrate QNLYFQS
L112E | 0.0615 | 0.0467 | 0.0684 | 0.0557 | 0.088 | 0.0601 | 0.055 | 0.0579 | 0.0563 | 0.0446 | 0.0604 | 0.0554 | 0.0524 |  |  |  |  | 
G8Q |  |  |  | 0.0688 | 0.0613 | 0.1 |  | 0.0416 |  | 0.0795 |  | 0.108 | 0.0588 |  |  |  |  | 
V200M |  | 0.0646 | 0.0532 | 0.0599 | 0.074 |  |  | 0.0613 |  |  | 0.0375 |  |  |  |  |  |  | 
E231Q | 0.0689 | 0.0561 |  | 0.0788 | 0.0827 |  |  | 0.065 |  | 0.0583 | 0.09 | 0.097 |  | 0.0859 | 0.0615 | 0.0684 |  | 
E231A | 0.079 |  | 0.0855 | 0.0661 |  |  |  | 0.0617 |  |  | 0.0659 |  | 0.0638 | 0.0445 |  | 0.074 | 0.0667 | 
T176A | 0.0744 | 0.0611 |  |  | 0.0581 | 0.0607 | 0.0814 | 0.0603 |  | 0.0615 | 0.0619 |  |  |  |  | 0.068 | 0.0651 | 
Q234F | 0.0721 | 0.0563 | 0.0608 |  | 0.0457 | 0.0591 |  | 0.0816 |  |  | 0.0519 | 0.0712 |  | 0.0619 |  | 0.0685 | 0.0647 | 0.018
Q234L | 0.0756 |  |  | 0.0615 | 0.0677 | 0.0946 | 0.103 | 0.0502 |  | 0.0645 | 0.0517 | 0.0827 | 0.0551 | 0.0671 | 0.0785 | 0.0401 | 0.128 | 0.0726
T233N | 0.0188 |  | 0.0679 | 0.0703 |  | 0.0757 |  |  |  | 0.0641 | 0.066 |  | 0.0646 | 0.0591 |  |  |  | 
T233R | 0.0818 | 0.0731 | 0.0663 | 0.067 | 0.0644 | 0.0654 | 0.0634 |  |  |  | 0.0652 | 0.0679 |  | 0.0487 |  | 0.0608 |  | 
R160S |  |  |  |  |  |  |  |  |  |  |  |  |  |  |  | 0.0582 |  | 
K230I | 0.0685 |  | 0.0555 | 0.063 | 0.0634 |  | 0.0495 |  |  | 0.0666 | 0.0633 |  | 0.0577 | 0.0617 |  |  | 0.0677 | 0.0532
K230F | 0.0838 | 0.0612 |  | 0.0667 | 0.065 | 0.069 | 0.0746 | 0.0686 |  |  | 0.0624 |  | 0.064 | 0.0604 |  | 0.0644 | 0.0646 | 
K230P | 0.103 | 0.0676 | 0.0576 |  | 0.0471 | 0.0899 | 0.0994 | 0.0707 | 0.0718 | 0.0601 | 0.0727 |  | 0.049 | 0.0649 |  | 0.0613 | 0.0644 | 
V229I | 0.0949 |  | 0.0508 | 0.0664 | 0.0542 |  |  | 0.0777 |  | 0.0691 | 0.0687 |  | 0.0834 | 0.0638 |  | 0.0084 | 0.0797 | 
V229M | 0.076 |  | 0.0592 | 0.0695 |  | 0.0503 | 0.0517 | 0.0934 | 0.0693 | 0.0635 | 0.0579 |  | 0.0654 | 0.0621 |  | 0.0661 |  | 0.0644
T192F |  |  |  |  |  |  |  | 0.0696 |  | 0.068 | 0.0593 |  | 0.0623 |  |  |  |  | 
H168C | 0.0581 |  |  | 0.0707 | 0.0458 | 0.0592 | 0.0706 |  |  |  | 0.0732 |  |  |  |  |  | 0.0589 | 
